Data reported in PubChem BioAssay AID1745845 (National Center for Advancing Translational Sciences (NCATS), 2022).
Screen size: about 360,000 compounds; about 2,600 (0.72%) were called active. Inconclusive results, whose numbers are uncertain, are shown with a selection of clear calls. Calls come from the whole dose curve; as a rule, active = well fitted inhibition curve with a large enough effect; inconclusive = small, poorly fitted or top-dose-only effect; inactive = no such curve, though single readings can be large or run the other way. Where the call is inconclusive, the potency comes from a doubtful curve fit.

Test: Primary qHTS for Inhibitors of ATXN expression; note: nearly all actives have a fitted effect of over 55% in size
Details: HEK-293 ATXN2-luciferase reporter, luminescence, 24 h; series mostly up to 57 µM
In short: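 qHTS (up to 57 uM final) was run with 24 h compound exposure of reporter cells at 37 °C. Each well was multiplexed: SteadyGlo luminescence measured ATXN2-luciferase expression after a fluorogenic Gly-Phe-AFC viability readout (25 uM final).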
Potency is the fitted concentration of half-maximal effect; tags give direction and shape of the fitted curve.

SMILES	Potency
CC(C)=CCc1cc([C@@H]2CC(=O)c3ccc(O)c(CC=C(C)C)c3O2)ccc1O	inconclusive: 39.8 µM [inhibitor, single point]
Cc1ccc(C)c(NC(=O)C(OC(=O)c2ccc(CO)cc2)c2ccccc2)c1 (stereo not drawn)	inactive
O=C(Nc1ccccc1-c1ccccc1)C1CCCN(c2ncccn2)C1 (stereo not drawn)	inactive
CS(=O)(=O)N1CCC(C(=O)Nc2ccccc2Sc2ccccc2)CC1	inconclusive: 25.1 µM [inhibitor, single point]
Cc1ccc(NS(=O)(=O)c2sc3ccc(Cl)cc3c2C)cc1	inconclusive: 21.2 µM [inhibitor, partial curve, poor fit]
O=C(c1ccc2c(c1)[nH]c(=S)n1c3ccccc3nc21)N1CCN(c2cccc(Cl)c2)CC1	inconclusive: 18.9 µM [inhibitor, single point]
O=C(c1cnn2c1NC(c1ccc(Br)cc1)CC2C(F)(F)F)N1CCN2CCCC2C1 (stereo not drawn)	inconclusive: 39.8 µM [inhibitor, single point]
CCOC(=O)c1cc2c(=O)n3ccccc3nc2n(CCCOC)c1=NC(=O)c1cc2ccccc2o1	inactive
CCOc1ccccc1N(C(=O)c1ccco1)C(C(=O)NC1CCCC1)c1cccs1 (stereo not drawn)	inactive
CCOc1ccccc1C(=O)N(Cc1ccccc1)Cc1cc2cc3c(cc2[nH]c1=O)OCCO3	inconclusive: 35.5 µM [inhibitor, single point]
CCn1c2ccccc2c2cc(Nc3cc(C)nc4ncnn34)ccc21	inconclusive: 25.1 µM [inhibitor, single point]
Cn1nc(C(=O)NNC(=O)C(CCC(N)=O)NS(=O)(=O)c2ccc(Cl)cc2)c2ccccc2c1=O (stereo not drawn)	inactive
Cc1cccc(NC(=S)NC2CCCC2)c1C	inactive
Cc1ccc(C(=O)CC2(O)C(=O)N(CCc3ccccc3)c3ccc(Br)cc32)cc1 (stereo not drawn)	inconclusive: 31.6 µM [inhibitor, single point]
CCOC(=O)Cc1csc(NC(=O)CSc2nnc(-c3cccnc3)n2Cc2ccco2)n1	inconclusive: 25.1 µM [inhibitor, partial curve, poor fit]
CC1(C(=O)NS(=O)(=O)C2CC2)CCCN(C(=O)c2ccco2)C1 (stereo not drawn)	inactive
Cc1ccc(-c2[nH]ncc2CNCCc2cnn(-c3ccccc3)c2)cc1C	inconclusive: 39.8 µM [inhibitor, single point]
CC(C)CC(NC(=O)c1ccc(Cl)cc1)C(=O)OCC(=O)c1ccc2c(c1)NC(=O)CO2 (stereo not drawn)	active: 25.1 µM
CN1C[C@@H]2C(c3ccc(C(F)(F)F)cc3)C3(c4ccccc4)CC2(C3)[C@H]1c1ccccc1 (stereo partly drawn)	inactive
CCC(C)Sc1cccc(-c2nc3ccc(C)cn3c2NCc2ccccc2)c1 (stereo not drawn)	inconclusive: 31.6 µM [inhibitor, single point]
COc1cc(C=NO)nc(-c2ccccn2)c1	inconclusive: 0.631 µM [inhibitor, full curve, poor fit]
CN(C)CCCN(C(=O)c1ccc2c(c1)CCCC2)c1nc2cc3c(cc2s1)OCO3	inconclusive: 25.1 µM [inhibitor, partial curve, poor fit]

SMILES	Potency
COC(=O)c1ccc(CSc2nc3ccccc3c(=O)n2C)o1	inactive
C=CCCN([C@H](CO)Cc1ccccc1)S(=O)(=O)c1ccccc1Br	inactive
N/C(=N\OC(=O)c1ccco1)c1ccc(Cl)cc1	inactive
C/C(=N/NC(=O)c1cc(C2CC2)[nH]n1)c1cccs1	inconclusive: 39.8 µM [inhibitor, single point]
O=C(Nc1ccc(Cl)cc1Cl)c1cccc(N2C(=O)C=CC2=O)c1	inconclusive: 35.5 µM [inhibitor, single point]
O=C(Nc1cccc(S(=O)(=O)N2CCCCC2)c1)c1ccc([N+](=O)[O-])o1	inconclusive: 14.1 µM [inhibitor, partial curve]
C[C@H]1CN([C@@H](C)CO)S(=O)(=O)c2ccc(Br)cc2O[C@H]1CN(C)S(=O)(=O)c1ccccc1	inconclusive: 31.6 µM [inhibitor, partial curve, poor fit]
Cc1c(C(=O)Nc2ccc(F)cc2F)nnn1-c1ccccc1Br	inactive
O=C(NCCSCc1ccco1)Nc1cc(Cl)cc(Cl)c1	inconclusive: 31.6 µM [inhibitor, single point]
CCN(CC)S(=O)(=O)c1cc(C(=O)OCC(=O)Nc2ccc(-c3nc4ccc(C)cc4s3)cc2)ccc1F	inactive
COc1cccc(-c2nc(S(=O)(=O)c3ccccc3)c(NCc3ccccc3)o2)c1	inactive
CCCOc1ccc(F)cc1-c1cc(C(=O)NCc2cccc(C(F)(F)F)c2)[nH]n1	inconclusive: 35.5 µM [inhibitor, single point]
COc1cccc2oc3cc(C#CC4(O)CCCCC4)ccc3c(=O)c12	inconclusive: 39.8 µM [inhibitor, single point]
CCCCNC(=O)CSc1c2c(nc3ccc(Cl)cc13)CCCC2	inconclusive: 39.8 µM [inhibitor, single point]
Cc1ccccc1NS(=O)(=O)c1cc(C(=O)NCCC2=CCCCC2)ccc1C	inconclusive: 39.8 µM [inhibitor, single point]
Cc1cccc(C)c1NC(=O)c1ccc2nc(CCc3ccccc3)oc2c1	inconclusive: 28.2 µM [inhibitor, partial curve]
Cc1cc([N+](=O)[O-])nn1CC(=O)N(C)C1CCCCC1	inactive
CCCCN(C)S(=O)(=O)c1ccc(C(=O)Nc2nnc(CSC)o2)cc1	inconclusive: 39.8 µM [inhibitor, single point]
Cc1c(NC(=S)N/N=C/c2ccc([N+](=O)[O-])cc2O)c(=O)n(-c2ccccc2)n1C	inconclusive: 25.1 µM [inhibitor, partial curve, poor fit]
COc1ccc(-n2c(-c3ccc(Cl)cc3)cc3c2CC(C)(C)CC3=O)c(OC)c1	inconclusive: 39.8 µM [inhibitor, single point]
O=C(NCc1ccc2c(c1)OCO2)C1CC(c2ccc(Cl)c(Cl)c2)=NO1 (stereo not drawn)	inactive
